# Several values for one entry are separate records, joined by “and”; a condition that tells them apart may be missing. Identical values can stand only once. Hit rate of the full screen: of about 420,000 compounds, about 64,000 (15%) were called active. This list was built around the results that the source calls inconclusive (neither active nor inactive); the mix of calls is not that of the screen. Calls follow the shape of the dose curve; as a rule, active = well fitted inhibition curve with a large enough effect; inconclusive = small, poorly fitted or top-dose-only effect; inactive = flat fitted curve, though single readings scatter. Potencies of inconclusive entries are doubtful fits and often do not repeat. Some structures have more than one record in an assay (separate samples or runs), and their calls can disagree.
# Assay: qHTS for Inhibitors of human tyrosyl-DNA phosphodiesterase 1 (TDP1): qHTS in cells in absence of CPT; also: nearly all actives have a fitted effect of over 55% in size
# Details: DT40 Tdp1-/- hTDP1 cells, no CPT, ATP luminescence, 48 h; activity change, negative = growth inhibition: at 46.2 µM (top of the series) unless noted
# In short: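 Growth kinetics read by CellTiter-Glo luminescence after ≥48 hr at 37 °C. Cells: DT40 Tdp1-/- stably carrying human TDP1, 400 per well, compound exposure in the absence of CPT (DMSO vehicle).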
# % is scaled to controls: 0 for no effect and ±100 for the full control effect; potency is read from the fitted curve at half-maximal effect; tags tell the direction and shape of the fitted curve.
Compound,Potency,"activity change, negative = growth inhibition"
CN1[C@@H](CC(=O)c2ccccc2)CCC[C@H]1C[C@H](O)c1ccccc1,active: 20.6 µM,
C1CC2NCCC3NCCC(N1)N32 (stereo not given),inactive,
Cc1[nH]c2ccccc2c1C(=O)C(=O)N1CC2CC(C1)c1cccc(=O)n1C2 (stereo not given),"inconclusive: 2.91 µM [inhibitor, partial curve]",
CN(CCS(=O)(=O)c1ccc(Cl)cc1)Cc1cccnc1,"inconclusive: 23.1 µM [inhibitor, single point]",
C[C@@H]1O[C@@H](O[C@@H]2C=C3CC[C@@H]4C(CC[C@]5(C)[C@@H](c6ccc(=O)oc6)CC[C@]45O)[C@@]3(C)CC2)[C@H](O)[C@H](O)[C@H]1O (stereo not given in full),active: 0.164 µM,
COc1ccc(CCNCc2ccccc2)cc1,,inconclusive: -30.8% [inhibitor]
COC(=O)C1=C(c2ccc(OC)c(OC)c2)C[C@@H]2CC[C@H]1N2C(=O)NC1Cc2ccccc2C1,inactive,
CCOC(=O)CC1c2ccccc2-n2nncc2CN1CC1CCCCC1 (stereo not given),"inconclusive: 16.4 µM [inhibitor, partial curve, poor fit]",
Cn1c(O)c(C=NC2CC3CCC2(C)C3(C)C)c(=O)[nH]c1=O (stereo not given),"inconclusive: 29.1 µM [inhibitor, single point]",
CC(Oc1ccccc1)C(=O)Nc1ccc(C(=O)OCc2cc(=O)n3nc(C4CC4)sc3n2)cc1 (stereo not given),"inconclusive: 18.4 µM [inhibitor, single point]",
O=C(Oc1ccccc1)N1CCC2(CCCN(Cc3ccccc3)C2)CC1,"inconclusive: 29.1 µM [inhibitor, single point]",
Cc1ccc(-n2c(/C=C\c3ccc(F)cc3)nc3ccccc3c2=O)cc1Cl,active: 16.4 µM,
CC(=O)OC1N=C(c2ccccc2Cl)c2cc(Br)ccc2N(C)C1=O (stereo not given),"inconclusive: 29.1 µM [inhibitor, single point]",
CCC(=O)Nc1ccc(C(=O)OCc2ccccc2Cl)cc1,"inconclusive: 18.4 µM [inhibitor, partial curve]",
COC(=O)C1=C(c2cccc(OCc3ccccc3)c2)C[C@@H]2CC[C@H]1N2C(=O)NCCOc1ccc(OC)cc1,"inconclusive: 29.1 µM [inhibitor, single point]",
Cc1cccc(-n2c(O)c(/C=N/Nc3nc4c(c(=O)n(C)c(=O)n4C)n3C)c(=O)[nH]c2=S)c1,"inconclusive: 25.9 µM [inhibitor, single point]",
CCOc1ccc(N2C(=O)NC(=O)/C(=C\c3cc(OC)c(OC)cc3[N+](=O)[O-])C2=O)cc1,"inconclusive: 29.1 µM [inhibitor, single point]",
O=c1c2ccccc2nc(-c2ccccc2)n1-c1ccncc1,inactive,
CCN(CC)C(=O)c1ccc(NC(=O)c2sccc2-c2ccccc2)cc1,"inconclusive: 29.1 µM [inhibitor, single point]",
Cc1nn(Cc2ccccc2)c(Cl)c1C(=O)NC1CCCc2ccccc21 (stereo not given),active: 20.6 µM,
O=C(O)c1cc[c]([Sb](=[O])([OH])[OH])cc1[N+](=O)[O-],inactive,
COC(=O)NC(=S)Nc1ccccc1NC(=S)NC(=O)OC,"inconclusive: 29.1 µM [inhibitor, single point] and inconclusive: 6.51 µM [inhibitor, partial curve]",

Compound,Potency,"activity change, negative = growth inhibition"
CCOc1ccc(NC(=O)Cn2cc(C(=O)c3ccccc3)c3ccccc32)cc1,"inconclusive: 23.1 µM [inhibitor, single point]",
COC(=O)C1=C(c2ccccc2)C[C@@H]2CC[C@H]1N2C(=O)N1CCCC1,active: 16.4 µM,
CN=C(SCC(=O)c1cccc(Cl)c1)c1c(O)n(C)c(=O)n(C)c1=O,"inconclusive: 20.6 µM [inhibitor, partial curve]",
CN(C)C(=O)O/N=C(\N)COc1ccc(C(C)(C)C)cc1,"inconclusive: 16.4 µM [inhibitor, single point]",
CC(C)N1C(=S)SC(C)(C)C1n1oc(=O)n(-c2ccc(Cl)c(Cl)c2)c1=O (stereo not given),"inconclusive: 29.1 µM [inhibitor, single point]",
CCOc1ccc(CN(CCc2ccc3c(c2)OCO3)Cc2cccc(OC)c2)cc1,"inconclusive: 32.6 µM [inhibitor, partial curve, poor fit]",
Cc1cccc(N(C)S(=O)(=O)c2cc(-c3cnc(C4CC4)o3)ccc2C)c1,active: 23.1 µM,
CCOC(=O)c1c(C)n(Cc2ccccc2)c2ccc(OCC(O)Cn3nc(C)nc3C)cc12 (stereo not given),"inconclusive: 29.1 µM [inhibitor, single point]",
CCOC(=O)c1ccc(CNCc2ccc(Br)cc2)cc1,"inconclusive: 18.4 µM [inhibitor, partial curve]",
Cc1nc2c(c(=O)[nH]1)C(c1ccc([N+](=O)[O-])cc1)c1c(c3ccccc3oc1=O)O2 (stereo not given),"inconclusive: 29.1 µM [inhibitor, single point]",
FC(F)(F)c1ccc(NC2=NCCCS2)cc1,inactive,
COc1cccc(-n2c(/C=C/c3ccc(O)c(O)c3)nc3ccccc3c2=O)c1,"inconclusive: 20.6 µM [inhibitor, partial curve, poor fit]",
COC(=O)C1=C(c2cccc(C#N)c2)C[C@@H]2CC[C@H]1N2C(=O)NC1CCCCC1,"inconclusive: 29.1 µM [inhibitor, single point]",
CCOC(=O)[C@]12Cc3cc(C)ccc3[C@H]1N(C)C(=O)c1ccccc12,active: 16.4 µM,
CC(C)[C@H](CO)Nc1nc(Nc2cccc(Cl)c2)c2ncn(C(C)C)c2n1,active: 9.44 µM,
CN(C)CCC=C1c2ccccc2CCc2ccccc21,active: 26.6 µM,
CC12CC(=O)C3C(CCC4CC(=O)C=CC43C)C1CCC2=O (stereo not given),"inconclusive: 25.9 µM [inhibitor, partial curve, poor fit]",
COc1ccc(-n2c(O)c(C=NCCN(C)C)c(=O)[nH]c2=O)cc1,inactive,
O=C1CC2OCC=C3CN4CCC56c7cc([N+](=O)[O-])ccc7N1C5C2C3CC46 (stereo not given),"inconclusive: 20.6 µM [inhibitor, partial curve]",
C[C@H]1C(=O)O[C@H]2CCN3CC=C(COC(=O)[C@](C)(O)[C@@]1(C)O)C23 (stereo not given in full),"inconclusive: 13.3 µM [inhibitor, partial curve, poor fit]",
Cn1c(=O)c2[nH]cnc2n(C)c1=O,"inconclusive: 9.44 µM [inhibitor, partial curve, poor fit]",
O=C1CN=C(c2ccccc2Cl)c2cc(Cl)ccc2N1Cc1cccc(Cl)c1,"inconclusive: 18.4 µM [inhibitor, single point]",

Compound,Potency,"activity change, negative = growth inhibition"
CCNc1cc(N2CCN(C)CC2)ccc1[N+](=O)[O-],inactive,
CCN(CC)CCCN=Cc1c(O)n(-c2ccccc2F)c(=O)[nH]c1=O,inactive,
CC(=O)O[C@H]1C[C@@H]2CC[C@@H]3[C@H](CC[C@]4(C)C(=O)CC[C@@H]34)[C@@]2(C)C[C@@H]1OC(C)=O,"inconclusive: 29.1 µM [inhibitor, single point]",
CC(CNC(=O)c1ccc(CSc2nc3ccncc3n2Cc2ccc(F)cc2)cc1)c1ccccc1 (stereo not given),"inconclusive: 29.1 µM [inhibitor, single point]",
CC(=O)OC(C)(C)/C=C/C(=O)C(C)(O)C1[C@H](O)C[C@@]2(C)C3CC=C4C(CC[C@@H](O)C4(C)C)[C@]3(CO)C(=O)C[C@]12C (stereo not given in full),active: 0.0103 µM,
C[C@]12CCC(=O)C=C1CC[C@@H]1[C@@H]2CC[C@]2(C)C(=O)CC[C@@H]12,active: 18.4 µM,
CC1=NOC2(C)Nc3ncnn3C(c3ccccc3)C12 (stereo not given),inactive,
CCc1ccc(CN2CCCC(C(=O)c3sccc3C)C2)o1 (stereo not given),"inconclusive: 29.1 µM [inhibitor, single point]",
COC(=O)C1=C(c2ccc(F)cc2F)C[C@@H]2CC[C@H]1N2C(=O)NCc1ccc(F)cc1,"inconclusive: 16.4 µM [inhibitor, partial curve, poor fit]",
CC1=CCCC2C1(C)CCC(C)C2(C)CC/C(C)=C/C[n+]1cn(C)c2c(N)ncnc21 (stereo not given),"inconclusive: 20.6 µM [inhibitor, single point]",
CCN(CC)CCNC(=O)c1c(O)c2ccccc2n(Cc2ccccc2)c1=O,active: 16.4 µM,
COc1ccc(N2C(=O)/C(=C/c3cc(C)n(-c4ccc(C)cn4)c3C)C(=O)NC2=S)c(OC)c1,"inconclusive: 29.1 µM [inhibitor, single point]",
COc1ccccc1N1C(=O)NC(=O)/C(=C\c2cnn(-c3ccccc3)c2)C1=O,,inconclusive: -32.3% [inhibitor]
CC(C)OCCCNC(=O)c1c(N)n(Cc2cccs2)c2nc3ccccc3nc12,active: 18.4 µM,
CN(C)CCNC(=O)c1cccn(Cc2cccc(C(F)(F)F)c2)c1=O,"inconclusive: 25.9 µM [inhibitor, single point]",
CCCCOc1ccc(CCN)cc1Cl,active: 2.06 µM,
COCC#CCN1CCCCC1c1cccnc1 (stereo not given),,inactive: -6.46% [at 9.04 µM]
CCN(CC)C(=O)COc1cc(C)cc2oc(=O)c3c(c12)CCCC3,"inconclusive: 3.66 µM [inhibitor, partial curve, poor fit]",
CC(C)c1nn2c(=O)cc(COC(=O)Cc3ccccc3)nc2s1,inactive,
COc1ccc(NC(=O)N2CCC3(CC2)CCN(C(=O)Oc2ccccc2)CC3)cc1,"inconclusive: 23.1 µM [inhibitor, single point]",
COc1ccc(N2C(=O)CC(N3CCC(n4c(=O)[nH]c5ccccc54)CC3)C2=O)cc1 (stereo not given),"inconclusive: 25.9 µM [inhibitor, single point]",

# — PubChem BioAssay AID686978 (National Center for Advancing Translational Sciences (NCATS), 2013)
